± gives the standard error. For some of these results: This sample is rich in variants without activity. Bounds are passed on as bounds.

B1: glmS ribozyme (parent)
chain: AUAAAAGCGCCAGAACUACAGAAAUGUAGUUGACGAGGAGGAGGUUUAUCGAAUUUUCGGCGGAUGCCUCCAAA

Settings in all cases: with glucosamine-6-phosphate
The variants in data set [1] derive from B1. Description: self-cleavage kobs at 40 uM GlcN6P; higher = faster cleavage; RNA array. The gist of the method:
(§1)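 Tracking of barcoded ribozyme variants used a hybridised Cy3 probe at 37 °C, after in situ transcription by E. coli RNA polymerase on sequenced MiSeq chips. The flowed solution held 40 μM to 10 mM glucosamine-6-phosphate in HEPES/KCl/Mg(OAc)2 buffer, and imaging ran over ~14 h. kobs was taken from exponential decay fits of normalised per-tile medians, and kcat and KM from weighted Michaelis–Menten fits.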

In data set [2] the parent is B1. Description: self-cleavage kobs at 2500 uM GlcN6P; higher = faster cleavage; RNA array. The gist of the method: as §1
Variants of B1 are the subject of data set [3]. The data set is described as follows: self-cleavage kobs at 640 uM GlcN6P; higher = faster cleavage; RNA array. The gist of the method: as §1
Data set [4] covers variants of B1. Description: self-cleavage kobs at 10000 uM GlcN6P; higher = faster cleavage; RNA array. The gist of the method:
as §1

In data set [5] the parent is B1. The data set is described as follows: self-cleavage kobs at 160 uM GlcN6P; higher = faster cleavage; RNA array. The gist of the method:
as §1

With AUAAAAGCGCCAGAACUACAGAAAUGUAGUUGACGAGGACGAGGUUUAUCGAAUUUUCGGAGGAUGCCUCCAAA [G40C C61A], the “self-cleavage kobs at 40 uM GlcN6P” value in data set [1] was below 1e-05 s⁻¹. Further, in data set [2], the “self-cleavage kobs at 2500 uM GlcN6P” value is below 1e-05 s⁻¹.

As for AUAAAAGCGCCAGAACUACAGAAAUGUAGUUGACGAGGAGUAUGUUUAUCGAAUUUUCGGCGGAUGCCUCCAAA [G41U G43U], the “self-cleavage kobs at 40 uM GlcN6P” value in data set [1] was below 1e-05 s⁻¹.

Regarding AUAAAAGCGCCAGAACUACAGAAAUGUAGUUGACGAGGAGAAGGGUUAUCGAAUUUUUGGCGGAUGCCUCCAAA [G41A U45G C58U], in data set [1], the “self-cleavage kobs at 40 uM GlcN6P” value is below 1e-05 s⁻¹. For the same variant, in data set [3], the “self-cleavage kobs at 640 uM GlcN6P” value was below 1e-05 s⁻¹.

For AUAAAAGCGCCAGAACUACAGAAAUGUAGUUGACGAGGAGCAGCUUUUUCGAAUUUUCGGCUGAUGCCUCCAAA [G41C G44C A48U G62U], the “self-cleavage kobs at 40 uM GlcN6P” value in data set [1] was below 1e-05 s⁻¹.

With AUAAAAGCGCCAGAACUACAGAAAUGUAGUUGACGAGGACGAGGUUUAUCGAAUUUUCGACGGAUGCCUCCAAA [G40C G60A], in data set [1], the “self-cleavage kobs at 40 uM GlcN6P” value was below 1e-05 s⁻¹. For the same variant, the “self-cleavage kobs at 640 uM GlcN6P” value in data set [3] was below 1e-05 s⁻¹. The “self-cleavage kobs at 10000 uM GlcN6P” value in data set [4] is below 1e-05 s⁻¹.

For AUAAAAGCGCCAGAACUACAGAAAUGUAGUUGACGAGGACGAGGUUUAUCGUAUUUUCGGCGGAUGCCUCCAAA [G40C A52U], in data set [1], the “self-cleavage kobs at 40 uM GlcN6P” value is below 1e-05 s⁻¹.

With AUAAAAGCGCCAGAACUACAGAAAUGUAGUUGACGAGGAGAAGGUUUUUCGAAUUUUCGGCGGAUGCAUCCAAA [G41A A48U C68A], the “self-cleavage kobs at 40 uM GlcN6P” value in data set [1] is below 1e-05 s⁻¹. The “self-cleavage kobs at 640 uM GlcN6P” value in data set [3] is below 1e-05 s⁻¹. Moreover, in data set [2], the “self-cleavage kobs at 2500 uM GlcN6P” value is below 1e-05 s⁻¹. Further, the “self-cleavage kobs at 10000 uM GlcN6P” value in data set [4] was below 1e-05 s⁻¹.

As to AUAAAAGCGCCAGAACUACAGAAAUGUAGUUGACGAGGAUGAGGUCUAUCGAAUUUUCGGCGGAUGCCUCCAAA [G40U U46C], the “self-cleavage kobs at 40 uM GlcN6P” value in data set [1] was 4.23e-05 ± 1.1e-05 s⁻¹. In addition, the “self-cleavage kobs at 640 uM GlcN6P” value in data set [3] was determined as 0.000365 ± 5e-05 s⁻¹. In addition, in data set [5], the “self-cleavage kobs at 160 uM GlcN6P” value came to 9.14e-05 ± 1.9e-05 s⁻¹. For the same variant, in data set [2], the “self-cleavage kobs at 2500 uM GlcN6P” value amounted to 0.000971 ± 0.00014 s⁻¹. The “self-cleavage kobs at 10000 uM GlcN6P” value in data set [4] was 0.00137 ± 0.00016 s⁻¹.

Take AUAAAAGCGCCAGAACUACAGAAAUGUAGUUGACGAGGAGAAGGUGUAUCUAAAUUUCGGCGGAUGCCUCCAAA [G41A U46G G51U U54A]: the “self-cleavage kobs at 40 uM GlcN6P” value in data set [1] is below 1e-05 s⁻¹.

As for AUAAAAGCGCCAGAACUACAGAAAUGUAGUUGACGAGGAUGAGGUUUGUCGAAUUUUCGGCGUAUGCCUCCAAA [G40U A48G G63U], the “self-cleavage kobs at 40 uM GlcN6P” value in data set [1] is below 1e-05 s⁻¹. The “self-cleavage kobs at 640 uM GlcN6P” value in data set [3] is below 1e-05 s⁻¹. In addition, the “self-cleavage kobs at 160 uM GlcN6P” value in data set [5] was below 1e-05 s⁻¹. Also, the “self-cleavage kobs at 10000 uM GlcN6P” value in data set [4] was below 1e-05 s⁻¹.

On to AUAAAAGCGCCAGAACUACAGAAAUGUAGUUGACGAGGAUGAGGUUUAUCGAAUUUUCGGCGGAUGUCUACAAA [G40U C67U C70A], for which the “self-cleavage kobs at 40 uM GlcN6P” value in data set [1] was below 1e-05 s⁻¹.

Take AUAAAAGCGCCAGAACUACAGAAAUGUAGUUGACGAGGAGGCGCUUUAUCGAAUUUUCGGCGGAUGCCUCCAAA [A42C G44C]: in data set [1], the “self-cleavage kobs at 40 uM GlcN6P” value was below 1e-05 s⁻¹. In addition, the “self-cleavage kobs at 640 uM GlcN6P” value in data set [3] is below 1e-05 s⁻¹. The “self-cleavage kobs at 160 uM GlcN6P” value in data set [5] was below 1e-05 s⁻¹. In addition, the “self-cleavage kobs at 10000 uM GlcN6P” value in data set [4] is below 1e-05 s⁻¹.

As for AUAAAAGCGCCAGAACUACAGAAAUGUAGUUGACGAGGAUGAGGAUUAUCGAAUUUUCGGCGGAUGCCUCCAAA [G40U U45A], in data set [1], the “self-cleavage kobs at 40 uM GlcN6P” value is 8.3e-05 ± 1.1e-05 s⁻¹. In addition, the “self-cleavage kobs at 640 uM GlcN6P” value in data set [3] stood at 0.00081 ± 0.0001 s⁻¹. Moreover, in data set [5], the “self-cleavage kobs at 160 uM GlcN6P” value stood at 0.000265 ± 4.2e-05 s⁻¹. The “self-cleavage kobs at 2500 uM GlcN6P” value in data set [2] was 0.00235 ± 0.00023 s⁻¹. For the same variant, in data set [4], the “self-cleavage kobs at 10000 uM GlcN6P” value was found to be 0.00154 ± 0.00024 s⁻¹.

For AUAAAAGCGCCAGAACUACAGAAAUGUAGUUGACGAGGAGUCGGUGUAUCGAAUUUUCGGUGGUUGUCUCCAAA [G41U A42C U46G C61U A64U C67U], in data set [1], the “self-cleavage kobs at 40 uM GlcN6P” value was below 1e-05 s⁻¹. Also, the “self-cleavage kobs at 2500 uM GlcN6P” value in data set [2] is below 1e-05 s⁻¹. For the same variant, the “self-cleavage kobs at 10000 uM GlcN6P” value in data set [4] is below 1e-05 s⁻¹.

Source of the values: the supplement of paper PMC7125110.
